# From the supplement of paper PMC9513381
# Recombinant human monoclonal antibodies (heavy:light variable regions). ELISA EC50 on the named antigen, from 10 µg/ml down; IC50 / IC90 against spike pseudovirus on 293T-ACE2 cells, 48 h; lower = stronger. Calls: IC50 above 1,000 ng/ml = non-neutralizing; EC50 above 1,000 ng/ml = non-binder. The source prints 1000 for neutralization that was not reached; it is given as >1000 ng/ml. Only binders of the Wuhan-Hu-1 domain have neutralization values.
# B1: B2031 (protein)
# chain 1: EVQLVESGGGLVQPGRSLRLSCAASGFIFEDYAMHWVRQAPGKGLEWVSGVSYNSGTIGYADSVKGRFIISRDNAKNSLYLQMRSLRPEDTAFYYCAKAKEPKDAYSDGDEYCFDSWGQGILVTVSS
# chain 2: QSVLTQPPSASGTPGQRVTVSCSGSSSNIGSNYVSWYQQLPGTAPKLLVYRSNQRPSGVPDRFSGSKSGTSASLAISGLRSEDEADYYCAAWDDSLSGVLFGGGTKLTVL
# B2: B2009 (protein)
# chain 1: QVQLVQSGAEVKKPGASVKVSCKASGYAFTNYAISWVRQATGQGLEWMGWMSPQDGDTGYAQKFQGRVTMTSDTSISTAYMELSGLTSEDTALYYCARGPRTNSDYFDFWGQGTLVTVSS
# chain 2: DIQMTQSPSPLSASVGDRVTITCRASQTISTWLAWYQQKPGQAPKLLIYDASSLESGVPSRFSGSGSGTEFTLTISSLQPDDFATYYCQQYNNYPFTFGPGTKVDIK
# B3: B2032 (protein)
# chain 1: QLQLQESGPGLAKPSETLSLTCSVSGGSISSVNYYWGWIRQPPGKGLEWIVSVYYGGNTHYNPSLKSRVTISVDTSKNQMSLKLNSVTAADTAVYYCARHEYYYDRRGSPRLGWFDPWGQGTLVTVSS
# chain 2: IRMTQSPSSLSASVGDRVTITCQASQDINTYLNWYQQKPGKAPKLLIYDVFNLETGVPSRFSGSGSGTEFTLTISSLQPEDIGTYYCQQYNNFALTFGGGTKVEIK
# B4: B2033 (protein)
# chain 1: VQLVESGGGVVQPGRSLRLSCAASGFTFSIYGMHWVRQAPGEGLEWVALISYDESNKYYADSVKGRFTISRDNSKNTLYLQMDSLRAEDTAVYYCVKQLGTYCSGGSCYSGFFDYWGQGTLVTVSS
# chain 2: IRMTQSPSSLSASVGGRVTITCQASQDITNYLNWYQQKPGKAPKLLIYDASNLEAGVPSRFSGSGSGTHFTFTINSLQPEDIATYYCQQYDNLPFTFGPGTKVDIK
# B5: B2141 (protein)
# chain 1: QVQLVQSGAEVKKPGSSVRVSCKASGGTLINYAVSWVRQAPGQGLEFMGGLIPILGTSYYAQKFQGRVTIIADESRRTVYMELSNLKSEDTAVYYCATGVRNCPGGGCYSAYFQHWGQGTLVTVSS
# chain 2: EIVLTQSPGTLSLSPGERATLSCRASQSVSRSHLAWYQQKPGQAPRLLIFGASSRATGIPDRFNGSGSGTDFTLTIRSLDREDFAVYYCHHYGDSTGTFGQGTKLEIK
# B6: B2143 (protein)
# chain 1: QVQLQESGPGLVKPSETLSLDCTVSGASINYYYWTWIRQPPGKGLEWIGYVFYSGSTNYNPSLKSRVTISVDSSANQFSLRLSSVTAADTAVYYCARGGMEYDGLLTGYYLDSWGQGTLVTVSS
# chain 2: IRMTQSPSSLSASVGDRVTITCRASQDISNFLNWYQQKPGKAPKLLIYRASSLETGVPSRFSGSGSGTHFTFTISSLQPEDIATYYCQQYDNVLLTFGGGTKVDIK
# B7: B2144 (protein)
# chain 1: QVQLQESGPGLVKPSQTMSLTCTVSGVDITSGGHFWSWIRHHPGKGLEWIGHIFYSGSTNYNPSLKSRVMMSVDTSKNQFSLKLTSVTAGDTAVYYCVRGGSGSYYMADYWGQGTLVTVSS
# chain 2: IRMTQSPSSLSASVGDRVTITCQASQDISNHLNWYQQRPGKAPKLLIYDASNLEAGVPSRFSGSGSGTDFTFTIQSLQPEDIATYYCQSYDNLPRPFFGQGTRLEIK
# B8: B2034 (protein)
# chain 1: QVQLVQSGPEVKKPGSSVKVSCKAPGGTASTYAIIWVRQAPGQGLEWMGGIIPLFGATRYTQRFQGRVTITADKSTTTAYMELSSLTSEDTAVYYCARVKRLWHESVARYYFDYWGQGTLVTVSS
# chain 2: DIQMTQSPSSLSASVGDRVTITCQASQDISNYLNWYQQKPGKAPKLLIYDASNVETGVPSRFSGSGSGTDFTFTISSLQPEDIATYYCQQFDNLPVVTFGGGTKVEIK
# B9: B2035 (protein)
# chain 1: QVQLVQSGAEVKKPGSSVKVSCKASGGALSTYGISWVRQAPGKGLEWVGGIVPVLKRTNYAQKFQGRVTITADESTNTAYMELRSLRSEDTALYYCARCLNMGFCSGGSCFDYCDYWGQGTLVTVSS
# chain 2: QSVLTQPASVSGSPGQSITISCTGTSSDVGGYNYVSWYQQHPGKAPKLIIFDVTDRPSGVSNRFSGSKSGNTASLTISGLQAEDEADYYCSSYTSSYTLVVFGGGTHLTVL
# B10: B2036 (protein)
# chain 1: QVQLVQSGAEVKKPGASVKVSCKVSGYTFINYGISWVRQAPGQGLEWMGWISAYDGYTNYAQKFQGRVTMTTDTSTSTAYMDLRSLRSDDTAIYYCARDPGATDYYESTAFELDYWGQGSLVTVSS
# chain 2: SYELTQPSSVSVSPGQTARITCSGDLLAKKYARWFQQKPGQAPVLVIYRDKERPSEIPERFSGSSSGTTVTLTISGAQVDDEADYYCYCAAAENNKVFGGGTKLTVL
# B11: B2037 (protein)
# chain 1: QVQLVQSGDEVKKPGSSVKVSCKTSGGTLTSYAISWVRQAPGQGLEWMGGIIPISGTPSYGEKFQGRVTITADKSTSTASMELTSLRYEDTAMYYCARETPAAVRFSERHPQGLGLYAMDVWGQGTTVTVSS
# chain 2: SYELTQPPSVSVAPGQTARISCGGDNIGSKNVHWYQQKPGQAPILVVFDDSDRPSGIPERFSGSNSGNTATLTISRVEAGDEADYSCQVWDSISARPSWVFGGGTKLTVL
# B12: B2038 (protein)
# chain 1: QVQLVQSGSEVKKPGASVKVSCKASGYTFTSYTIHWVRQAPGQGLEWMGVINPSGGSSTYAQRFHARVNMTRDMSTTTVYMDLNSLRSEDTAVYFCARVCSTVNCPPRATDGLDVWGQGTTVTVSS
# chain 2: DIQMTQSPSSLSASVGDRVTITCRASQSINFFLNWYQQKPGKAPKLLIYAASSLDRGVPSRFGGSGSGTDFTLTINSLQPEDFATYYCQQSYTPSITFGQGTRLEIK
# B13: B2039 (protein)
# chain 1: EVQLVESGGGLIQPGGSLRLSCAASGFTVSSNYMSWVRQAPGKGLEWVSLIYPGGSTFYADSMKGRFTISRDNSKNTLYLQMNSLRAEDTAVYYCARVVGPTGTDAFDVWGQGTMVTVSS
# chain 2: DIQMTQSPSSLSASVGDRVTITCQASQDISNSLNWYQQKPGKAPKLLIYDASNLQTGVPSRFSGSGSGTDFTFTISSLQPEDIATYYCQQFDNLPSFTFGPGTKVDIK
# B14: B2041 (protein)
# chain 1: EVQLVESGGNLIQPGGSLRLSCAASGFIVSNSYMSWVRQAPGKGLEWVSVIYSGDSTFYADSVKGRFTISRDNSRNTMYLQMNSLRAEDTAVYYCARLGGIQLHDGGFDYWGQGTLVTVSS
# chain 2: QSALTQPPSASGSPGQSVTISCTGTSSDVGGYNYVSWYQQHPGKAPKFLIYEVSKRPSGVPGRFSGSKSGNTASLTVSGLQAEDEAYYHCSSYAGSHLWVFGGGTKLTVL
# Biological target: SARS-CoV-2 Wuhan-Hu-1 spike pseudovirus
# Test: pseudovirus neutralization IC50; higher = weaker neutralization
# Protocol: (§1)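 Single-round luciferase reporter pseudovirus mixed with antibody dilutions and put on 293T-ACE2 cells for 48 h; signal relative to no-antibody wells, four-parameter fit.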
row,Binder,pseudovirus neutralization IC50
1,B1,0.0176 µg/mL
2,B2,0.528 µg/mL
3,B3,0.0316 µg/mL
4,B4,> 1 µg/mL
5,B5,0.00569 µg/mL
6,B6,> 1 µg/mL
7,B7,> 1 µg/mL
8,B8,0.00439 µg/mL
9,B9,0.0172 µg/mL
10,B10,> 1 µg/mL
11,B11,> 1 µg/mL
12,B12,0.00209 µg/mL
13,B13,0.00998 µg/mL
14,B14,0.00453 µg/mL

# Biological target: SARS-CoV-2 Wuhan-Hu-1 spike pseudovirus
# Test: pseudovirus neutralization IC90; higher = weaker neutralization
# Protocol: as §1
row,Binder,pseudovirus neutralization IC90
1,B1,0.12 µg/mL
2,B2,> 1 µg/mL
3,B3,0.198 µg/mL
4,B4,> 1 µg/mL
5,B5,0.0692 µg/mL
6,B6,> 1 µg/mL
7,B7,> 1 µg/mL
8,B8,0.0316 µg/mL
9,B9,0.361 µg/mL
10,B10,> 1 µg/mL
11,B11,> 1 µg/mL
12,B12,0.0193 µg/mL
13,B13,0.131 µg/mL
14,B14,0.0219 µg/mL

# Biological target: SARS-CoV-2 Delta (B.1.617.2) spike RBD
# Test: ELISA binding EC50; higher = weaker binding; ELISA of recombinant human antibody on coated antigen, from 10 µg/ml in fourfold dilutions; four-parameter fit.
row,Binder,ELISA binding EC50
1,B1,0.0512 µg/mL
2,B2,0.0163 µg/mL
3,B3,0.00841 µg/mL
4,B4,0.0284 µg/mL
5,B5,0.0147 µg/mL
6,B6,0.0137 µg/mL
7,B7,0.0454 µg/mL
8,B8,> 1 µg/mL
9,B9,0.0427 µg/mL
10,B10,0.0269 µg/mL
11,B11,0.0185 µg/mL
12,B12,0.0211 µg/mL
13,B13,0.0152 µg/mL
14,B14,> 1 µg/mL

# Biological target: SARS-CoV-2 Omicron BA.1 spike protein
# Test: as above
row,Binder,ELISA binding EC50
1,B1,0.00786 µg/mL
2,B2,0.0109 µg/mL
3,B3,0.0295 µg/mL
4,B4,0.00836 µg/mL
5,B5,0.0559 µg/mL
6,B6,0.00679 µg/mL
7,B7,0.0083 µg/mL
8,B8,0.00342 µg/mL
9,B9,0.00472 µg/mL
10,B10,0.0427 µg/mL
11,B11,0.0389 µg/mL
12,B12,0.00246 µg/mL
13,B13,0.00985 µg/mL
14,B14,> 1 µg/mL

# Biological target: SARS-CoV-2 Wuhan-Hu-1 spike receptor-binding domain
# Test: as above
row,Binder,ELISA binding EC50
1,B1,0.00258 µg/mL
2,B2,0.00263 µg/mL
3,B3,0.00278 µg/mL
4,B4,0.00354 µg/mL
5,B5,0.00245 µg/mL
6,B6,0.00325 µg/mL
7,B7,0.00118 µg/mL
8,B8,0.00245 µg/mL
9,B9,0.00252 µg/mL
10,B10,0.00636 µg/mL
11,B11,0.00244 µg/mL
12,B12,0.00157 µg/mL
13,B13,0.00126 µg/mL
14,B14,0.00196 µg/mL
